Measured values from the supplement of paper PMC11417369.
Some of the results follow.

What follows are sequences tested on PfHDP1 homeodomain (GST-tagged) (assay: gcPBM binding intensity (ln(normalized median fluorescence intensity)); higher = stronger DNA binding).
How it was run: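 After 1 h on an Agilent 4 × 180k array of primer-extended double-stranded 36-bp intergenic genomic probes and negative controls, bound GST-tagged P. falciparum DNA-binding domains were detected with Alexa488 anti-GST antibody and scanned at 488 nm. The domains had been expressed in E. coli, and binding took place in 1× PBS with 1% milk, 0.2 mg/ml BSA, 0.5% salmon testes DNA and 0.03% Triton X-100. Binding intensity is the highest Masliner-normalised natural-log median intensity across replicate spots of either probe orientation.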

Row | Sequence | gcPBM binding intensity (ln)
1 | ATATATATATATATGGGTACGTAAAAATATAATAAA [XGTACX_site4036] | 9.11
2 | AAAAAAATTACATATCCATTTTAACATAATAAATAG [GTGCAC_negctrl_site618] | 6.03
3 | TTACGAATAAAACAGTGTACATTGAATTTCTATGAG [XGTACX_site4771] | 6.39
4 | ATTCTATTCTCCTTCACACACAAAAATATTTCATCA [CACACA_site2360] | 6.98
5 | ATCTATGGGTAGTATACACACTGTATATTTAGGAAT [CACACA_site5569] | 6.55
6 | TTTTTGCAAAAAGAAATAATTTTATTTTAGTTCGGA [CACACA_negctrl_site1718] | 8.69
7 | TCCATGCAGAAACACACACACAAAAAAAAATTCTTT [CACACA_site4099] | 6.47
8 | AATTATATATAACGTAGTACATATTATAAACCACGT [XGTACX_site8816] | 6.23
9 | ACCTATATAAATTATACACACAAATATAAATATATA [CACACA_site2843] | 6.62
10 | ATATTCCTTTAATATTGTACTATTTTTTTCCTTATA [XGTACX_site8659] | 6.62
11 | TTGTTATTCCACCGTTGTACAGTTATATACATACAC [XGTACX_site8296] | 7.2
12 | TGTCATAAAACCGTTTGTACATATTAATAGACACCT [XGTACX_site4520] | 6.42
13 | TATAATAATAATGATAGTACGTATGAGTTCAAGAAA [XGTACX_site4918] | 6.34
14 | ACTAATAACAAAAGCTTGCACTTTTTTTTTCCTAAT | 7.04
15 | TGTATCCACATATGTACACACATATATCTGTATATG [CACACA_site5668] | 6.99
16 | TATAATTTTCTTAGTAGTACATTTTAAATCTACTAC [XGTACX_site2621] | 6.3
17 | TATGTACAAATATGTACACACACACCGATATATATA [CACACA_site4487] | 7.04
18 | ATATAAGATTACAAAAATTATGTGTAAATATTTAAT [XGTACX_negctrl_site448] | 6.63
19 | AAAAAAAAAAAAAAAAGTACAAAAATTATATTAAGA [XGTACX_site4255] | 6.2
20 | TTACTTGTTTATTTTATTTTTTTTTTTTTTTTGTTA [TGCATGCA_negctrl_site266] | 5.73
21 | AGTGAGAAATACATAATAATACATTATGTGCATATT [XGTACX_negctrl_site247] | 10.7
22 | AAGAATATTTTTTTCTGTACATATAATTTATATACG [XGTACX_site5801] | 6.05

Row | Sequence | gcPBM binding intensity (ln)
23 | GTACACATATATATATATATATATATATATATATTA [CACACA_negctrl_site1580] | 7.73
24 | ATATTAAGAATATATACACACATAAGTATTGTATAT [CACACA_site6110] | 6.25
25 | ATAAAATAAAATAAATGTACACGAAAAAAAATATTT [XGTACX_site3747] | 7.15
26 | TATTCGTGCAATAGTAGTACACTTATAAATTATTCT [XGTACX_site4899] | 9.93
27 | AAGGAGATAATTTATTGTACATATAATAAATGAACA [XGTACX_site6252] | 6.12
28 | TCTTACAAAAAAAAAAAAAAATAAAATAAAATATAT [CACACA_negctrl_site1575] | 6.11
29 | TTAATATTATGTTAAAGTACTTTATATATATATAAT [XGTACX_site2646] | 6.54
30 | TTCATTTACCCTTATTAACACACAAAATATAATACG [CACACA_site8821] | 6.93
31 | TGTATATTATAAGATAGTACATATATATAATATATA [XGTACX_site1297] | 6.39
32 | ATCTTATATATACGTTGTACTACAGGATATGTCATA [XGTACX_site5734] | 6.63
33 | ATAAATATCATATATATACACACGTAATACATAATA [CACACA_site4001] | 6.55
34 | TAATTACAAAAACATACACACAAAAAAAAAAAAAAA [CACACA_site3782] | 6.22
35 | AGCAAATACAAACACACACACACATATACATATATA [CACACA_site3497] | 6.96
36 | ACATACATATATATACGTACATATATATTTATATAT [XGTACX_site5799] | 6.84
37 | ATTCTAAATATCAGTGCACACATTTCTACGCAAAGT [CACACA_site474] | 9.78
38 | GTTGGTAGATTTATTTGTACATATGTATCATATTAT [XGTACX_site7135] | 6.82
39 | AAAAATTTATTTTGTTTTTTAAGATTTTTTTTTTTT [CACACA_negctrl_site1210] | 5.85
40 | TATATTATATATTGGGGTACATATATATAAATATAA [XGTACX_site2296] | 6.62
41 | TATCAATATTAAAAAGTGCAAAATAAAATATAAAAT [GTGCAC_site9486] | 8.47
42 | TATGTTATATTATAAGGATAAATTTTGATTATATAA [TGCATGCA_negctrl_site600] | 6.01
43 | AGAATAAAAAGGAACACACACACACCCATATATATA [CACACA_site3590] | 6.94
44 | ATGTACATTTTTTTCACACATACATTAATTTATGAG [CACACA_site5801] | 6.82

Row | Sequence | gcPBM binding intensity (ln)
45 | TATATTTACATTGTAACACACATGAAATATTTATAT [CACACA_site6178] | 6.41
46 | TAGACTAATCCCAAAAGTACAGAAAAATTATATTAT [XGTACX_site8663] | 6.37
47 | AAAATAAATAGATAAGCACACAAGCATATAGACATA [CACACA_site7958] | 6.53
48 | TAATTTCTTATGTATTGTACATATAATATATGATAT [XGTACX_site4898] | 6.49
49 | AATATATTTATGCTCATGCACTTTTTTTTTTTTTTT [GTGCAC_site9654] | 10
50 | TTTATTTATTATTAAAGTACTAAATTACATTATTAT [XGTACX_site6624] | 5.91
51 | TATTTAATTACATGAACACACATTAGATATTTTTAA [CACACA_site7405] | 6.33
52 | TTATTTCAAATTAATTTACACACTTCATACTAAAAG [CACACA_site9039] | 6.82
53 | CATTATTTACCGCCGTGTACGTAATGAGAAATTAAA [XGTACX_site4662] | 6.34
54 | TAATAAAAAAAGTGCACACACATAATATTTATATAT [CACACA_site7548] | 8.75
55 | GAAAACAAATATGTAGCACACATTCACATAATATAT [CACACA_site8731] | 6.52
56 | TTATGTTGTAAATGCACACATACAAATACAGATACA [CACACA_site4876] | 10.1
57 | ATTATAATGGTAAAGTGTACAAATTTTTATTACACC [XGTACX_site5274] | 6.5
58 | ATAAATATAAAAATTTGTACATATATAGGTATAGGT [XGTACX_site1735] | 7.06
59 | ACATACAAGAATTAAACACACACAAAATATAAATTC [CACACA_site8985] | 6.8
60 | TCTTGTATATACAGTAGTACTAAAAATTATTAAATA [XGTACX_site7896] | 6.5
61 | AATCAAAATTAATTAACACACAATTTTAATATTCTT [CACACA_site2063] | 6.14
62 | ATTGTTTATATTGATTGTACTCATTTTTTTTTTATT [XGTACX_site1946] | 6.92
63 | TCCTGTGATTATATAACACACATTATTGCTTATAAG [CACACA_site1518] | 6.83
64 | ATATATTATATATATTACAACTTAAGAATATACATA [TGCATGCA_negctrl_site371] | 6.26
65 | ATAGTAAACGAAATAAAAAGATTAGCATAATATCCT [CACACA_negctrl_site1730] | 6.46
66 | ATATATTGAAAAAAATGTACGTATTTTTTTATGTTA [XGTACX_site4654] | 6.39

Row | Sequence | gcPBM binding intensity (ln)
67 | ATTATATATATATATACACACACACCCTAAAAATAT [CACACA_site8463] | 7.22
68 | ACATGTTTTATGTGCACACAAAGTTGTTATGAGGTT [CACACA_site4031] | 10.7
69 | ATATAATATTTCATGTGGACACATTTTATGATTGTA [XGTACX_site8770] | 6.77
70 | ACACATATATATTATTATTATATAATATATATATAT [CACACA_negctrl_site1545] | 8.32
71 | AATAAATATATTACATATATGTGTAGTATTTTTTTA [TGCATGCA_negctrl_site268] | 6.31
72 | TAAGCTTGTAACAGTTTACACACTAATATTTATAAA [CACACA_site3907] | 6.39
73 | TTATTAAATTTTTTTTGTACTTATATATATATATAT [XGTACX_site2443] | 9.03
74 | TATGAATGTATATGTTGTACATATAAATATTTATAT [XGTACX_site1146] | 6.5
75 | ATTATTATATAGTGTGCATGCAATATTAATAAAACC [TGCATGCA_site245] | 9.14
76 | CAAAAAAAAAAAAAAACACACATTAAATTAGAAAGA [CACACA_site7271] | 6.12
77 | ATATACATTTAAATGTGTACATAATAAAATAAAAAA [XGTACX_site8170] | 7.18
78 | AATATTTATATTTAGTGTACAGAAATAAAAAAAAAA [XGTACX_site6066] | 6.44
79 | GCTAATTTATTTTGCAGTACATATATAATAATATAT [XGTACX_site478] | 6.29
80 | TTTACAAAAAATTATACACACACGTACAGATAAATA [CACACA_site4678] | 6.97
81 | TCCTCATTTTATCATACACACTTGTTTATATGGGTG [CACACA_site4650] | 6.63
82 | ACCCATAAAAATTATGCACACTTAATAAAGCGAAAT [CACACA_site5722] | 10.2
83 | ATAATTTATTTTAAAAGTACTCAATTTGCTTTTCTC [XGTACX_site5749] | 6.29
84 | AAATAATTAAACATATGTACATATTATATATATATA [XGTACX_site6774] | 8.72
85 | TATATTTATTATAATTGTACATAAAATAAACTAAGA [XGTACX_site4318] | 6.41
86 | TGATTAAATAAATATATATATTTATATATTATACAG [CACACA_negctrl_site1596] | 6.26
87 | GCTCTATCAAAAAAATGTACACATATTATCATTCAT [XGTACX_site143] | 6.54
88 | CAAATAAATATTAAAAGTACACACAGATACACTAAT [XGTACX_site3749] | 6.7
